From the supplement of paper PMC11417369
± gives the standard deviation of the averaged measurements. The list shows a part of the results.

System: PfAP2-LT AP2 domain (GST-tagged)
Assay: gcPBM binding intensity (ln(normalized median fluorescence intensity)); higher = stronger DNA binding
How it was run: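 The binding buffer was 1× PBS containing 1% milk, 0.2 mg/ml BSA, 0.5% salmon testes DNA and 0.03% Triton X-100. In it, GST-tagged P. falciparum DNA-binding domains expressed in E. coli were applied for 1 h to an Agilent 4 × 180k array of primer-extended double-stranded 36-bp intergenic genomic probes plus negative controls. Binding intensity, read with Alexa488 anti-GST antibody and a 488 nm scan, is the highest Masliner-normalised natural-log median intensity across replicate spots of either probe orientation.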

Sequence | gcPBM binding intensity (ln)
TGTATTATATATACACAAATATTTATGTGTGTGTTT [XGTACX_negctrl_site475] | 9.65 ± 0.3
TTTTTTTGTATTTGTTTATTTAATGATAAAATTAAA [CACACA_negctrl_site225] | 8.21 ± 0.4
AAATAATATTTTTTTTTTTTTTTTTTTTTATGTTAT [CACACA_negctrl_site809] | 8.37 ± 0.52
ATACAGTTGCATATGGTGCACGAATAATACACCTAT | 9.01 ± 0.42
ATAGTCTTAATGACTACACACCTAACTATGCATGCA [CACACA_site5084] | 9.14 ± 0.37
TGGTAGTATATCATAGAAATCATTGTATAACAAATA [XGTACX_negctrl_site569] | 8.67 ± 0.48
AAAAAAAAAAAAAAAACACACAAATCATAAATAAAT [CACACA_site478] | 8.76 ± 0.52
TTTCGTTCATAAAAAAGTACATATGAGCAAAAGGTA [XGTACX_site8936] | 8.69 ± 0.37
GAATTAAAATAATACGTACACACATGTATAATACAT [CACACA_site1004] | 9.21 ± 0.29
TATATATATATATATAGTACATATTTATATATGAAA [XGTACX_site8488] | 8.98 ± 0.18
ACTAAACTAATATGTACACACATATAACATTAATTT [CACACA_site7128] | 9.06 ± 0.41
CACAATACTTTCATCACACATATATATATATATATA [CACACA_site4677] | 9.77 ± 0.3
TTGTTCTATTTAAGTAGTACATACACACACATATAC [XGTACX_site8484] | 9.52 ± 0.38
ACATATATATATTCTACACACTTATAATATAATACA [CACACA_site2461] | 8.86 ± 0.37
AGGTTTCATTTAGCATGTACATATTATAAAAATTGT [XGTACX_site8448] | 8.65 ± 0.32
AAGATTACTTATATATGTACACATAATACAAATGTC [XGTACX_site520] | 8.89 ± 0.27
AAAAAATTATACCTTTGTACATAAATAAAATATTAT [XGTACX_site418] | 8.54 ± 0.42
TATGTATATATTTACGCATGCTACTCTATTTTGAGA [TGCATGCA_site990] | 9.06 ± 0.47
ATAACATAAGGAAATACACACATATATAAGTATATA [CACACA_site778] | 9.21 ± 0.45
ACCCATTGCTCACGTGCACACATAGAAAAATAATTC [CACACA_site4389] | 9.16 ± 0.4
ATAGTATCTGGTAGCTGTACGAGTCGTAGAGTGTAG [XGTACX_site2030] | 9.05 ± 0.47
TATAATAATAATTATTGTACGATTAGGTTAATTCAT [XGTACX_site1984] | 8.49 ± 0.38
AGAAAGGTGGTATTAAAAGAATAACCTATGAATAAA [GTGCAC_negctrl_site325] | 8.66 ± 0.62

Sequence | gcPBM binding intensity (ln)
TATGTATTTTTTAAGTGTACCTATATATATATATAT [XGTACX_site7934] | 9.255 ± 0.035
TGGGAAGGGTGGGAAACTTTATCAAAAACTTATTAC [GTGCAC_negctrl_site16] | 8.98 ± 0.24
TTTTAGAGTGGTATATATTAATTTTTAATAAAAAAA [CACACA_negctrl_site1652] | 7.95 ± 0.45
ATAATATATACTATATGTACATATCTTTTCCTCTTT [XGTACX_site5553] | 9.26 ± 0.75
TTTTTCATAAAAAAATAAAAAAAATTAACATAGAAA [XGTACX_negctrl_site11] | 8.21 ± 0.39
TGTGCATAAATTTATGCACACATAAAAAAAAAAAAA [CACACA_site8954] | 8.91 ± 0.47
AATAAAAGAAGACAGAGTACACAGGTTGTATTTTCC [XGTACX_site7208] | 8.96 ± 0.43
TTGTGTAAAGGTATTATTGTATTATTCAAAATAAAA [XGTACX_negctrl_site167] | 8.39 ± 0.6
AATATATAATATATATGTACTTATATATAAAAGATA [XGTACX_site7635] | 8.76 ± 0.42
ATTTATTAATATCCCAGTACTCATGGGGAATAATGA [XGTACX_site4014] | 8.57 ± 0.41
TTTATATAAATTTATTCACACAACTAATTTTTTAAA [CACACA_site4848] | 8.17 ± 0.45
TGATAAATTAAAAATTGTACTATTATAATAATATAT [XGTACX_site6615] | 8.36 ± 0.48
ACAATAAACATATATACACACACAAAAAAAAAAACA [CACACA_site8033] | 9.64 ± 0.33
ATCAAATAGAGACACACACACCTAAACATAAAAGAA [CACACA_site7321] | 9.78 ± 0.48
CATATATATTTGTTCACACACACACTAATAAAAAAA [CACACA_site8787] | 9.45 ± 0.34
TGGAGGAACCTCATATGTACGTATAAATATATATTT [XGTACX_site5603] | 8.76 ± 0.34
TTAAAGCACCCATGCACACACACAAAGGAAAAGAAA [CACACA_site233] | 9.52 ± 0.3
TTATATGTATGGAGGTTTTTGTATATAGATATATAG [CACACA_negctrl_site177] | 8.65 ± 0.38
CATCTTATATAATCATGTACATATAGAGACTTCTTT [XGTACX_site7685] | 8.62 ± 0.4
GGGGGAATTTACATGGGTACACATGTATTAAAAAAT [XGTACX_site4130] | 9.03 ± 0.11
TTTTTCTTACATGAGTGTACACACTTTTTTTCAGAA [XGTACX_site138] | 8.78 ± 0.48
ACTATTAAAATGAATACACACAAATATAAAAATATA [CACACA_site4145] | 8.96 ± 0.5
GGTAGGGATTATACCACACACACATACACATAAATA [CACACA_site3179] | 9.62 ± 0.45

Sequence | gcPBM binding intensity (ln)
ACGCTACATAAATACGTGCACATCTTTTTGTGTATA [GTGCAC_site9675] | 9.07 ± 0.36
ATGTCATATAATAGTACACACATGAAAATATAAATA [CACACA_site3215] | 9.18 ± 0.46
ATAAAAAAAGGACACACACACATATATTTATTTATA [CACACA_site7438] | 9.71 ± 0.19
AAAAAAAAAAAAAATAGTACAATACCCAAATATAAC [XGTACX_site6684] | 9 ± 0.47
TTATTATAAATGTTTTGTACGTACATCCGAAAATAA [XGTACX_site2175] | 8.49 ± 0.42
TATAATCATATTAAGGGTACATATGTGTAAATATTT [XGTACX_site6018] | 8.77 ± 0.33
ATAATAATAATATAACCAAGGAAATATAATATTTGT [XGTACX_negctrl_site485] | 8.88 ± 0.36
CTTTAAAACCGGTACTGTACACATAGTATTATTATC [XGTACX_site2602] | 8.92 ± 0.37
CGATACTTTAGGTGTACACAAATATACATGAATGAG [CACACA_site5189] | 8.97 ± 0.49
AAAAAAAAGGAAATAACACACATGTATTTATTTATA [CACACA_site4966] | 8.79 ± 0.49
AAATTTGCTTTTATTTTACACACTTGCTCCTGTTGT [CACACA_site8276] | 9.53 ± 0.61
ATAATATTTTAATGCACACACACAAAAAAAAAAAAA [CACACA_site2891] | 9.13 ± 0.32
AAACAATCTAAAAGTAGTACAATAAAAATATATATA [XGTACX_site5607] | 8.81 ± 0.57
GAACCATAAGGAACGACACACAAAGATAAATAAATA [CACACA_site3472] | 9.1 ± 0.69
AAAAAAAAATTATTCACACATATATATATATATATA [CACACA_site5579] | 9.54 ± 0.18
AAAAATAAAAAAAGCACACACATATATATATATATA [CACACA_site1885] | 9.9 ± 0.33
TGATATTTACAAATATTAAGATCTTATATTTTTTTT [CACACA_negctrl_site617] | 8.46 ± 0.53
GTGTGAAACATAAACACACACAAAAAGAAAAAATAG [CACACA_site1227] | 9.52 ± 0.47
AATATAAATATTAAAACACACATAAAAAGATTATTA [CACACA_site1764] | 8.7 ± 0.53
TATATATATATATTACGTACATAGAACTTTATAAAA [XGTACX_site4485] | 8.64 ± 0.35
AATATTTTATTTTGGGTGCAAAAGAATATTATTTCA | 8.31 ± 0.45
AGCACATATATATTATGTACATATAACTTCCCAGTG [XGTACX_site7095] | 8.97 ± 0.35
TATTACATAATACAAAGTACATATATTTTTTTATTT [XGTACX_site7061] | 8.52 ± 0.41

Sequence | gcPBM binding intensity (ln)
GTATATATATATATATGTACTAATTAGTAGTTTACG [XGTACX_site6274] | 9.01 ± 0.32
AATATTATAAATGATACACACTTAAAATACACGCAC [CACACA_site7305] | 9.2 ± 0.26
ATATTTATACATAAATGTACTTTTATATATTTAATA [XGTACX_site3020] | 8.57 ± 0.45
TAACAATTAATAAAAGGTACACTTGAATATGCACCA [XGTACX_site2717] | 8.54 ± 0.45
AATATATATATATATACACACACACCGATATATATA [CACACA_site8158] | 9.87 ± 0.2
TTAATATTTAGACATGCATGCTAATTACTATATATA [TGCATGCA_site27] | 8.99 ± 0.56
AATTTTAAGAGCTATACATGCACTTCATAAAAAGTG [TGCATGCA_site180] | 8.42 ± 0.38
ATAATAAAAAAAAATGCACACATATATATATATATA [CACACA_site8766] | 9.7 ± 0.11
GTAGAGCATAATAAAACACACACATACATACATATA [CACACA_site8217] | 9.64 ± 0.35
ATGGACATCTATTGTTGTACACATTTTCCCATAACA [XGTACX_site5429] | 8.86 ± 0.42
TTTCAAAAATGAGTTACACACACACGGATATAAATA [CACACA_site7116] | 9.35 ± 0.33
GAATATAAAATATATATATATATATATATATATATA [GTGCAC_negctrl_site425] | 9.6 ± 0.085
TTATAAATATAAAAATGTACAGAAAAAAAAAATAAA [XGTACX_site863] | 8.68 ± 0.54
AAAAGATTTATACATACACACATATTATATTCACAT [CACACA_site3713] | 9.16 ± 0.45
GTAAAAAATATGACAAGTACAAGAAAAGAAAAAAGT [XGTACX_site7906] | 9.29 ± 0.5
ATAGAACTATATTGCACACATAATATATATATATAT [CACACA_site3189] | 9.36 ± 0.13
TAATATAAAGAAAAGGAACACACAAATATATATATA [CACACA_site8049] | 9.04 ± 0.38
TTTTCTTGGTTCAGTGTGCACTTATATATATATATA | 9.21 ± 0.39
TTATAATATATATACAGTACATATATAAAATAATAT [XGTACX_site5917] | 8.71 ± 0.41
TTATTTCTCTTTTCAGTGCATTTTATAACAAAAAAA [GTGCAC_site9930] | 8.17 ± 0.24
